Experimental data: PubChem BioAssay AID504832 (National Center for Advancing Translational Sciences (NCATS), 2011)
Out of some 310,000 compounds screened, about 18,000 (5.8%) were called active. The shares of active, inactive and inconclusive entries below differ from those in the screen. The call rests on the fitted dose curve; in most records, active means well fitted inhibition curve with a large enough effect; inconclusive means small, poorly fitted or top-dose-only effect, or another doubt; inactive means no such curve, though single readings can be large or run the other way. No potency is given beside an inconclusive call; the fits are too rough.

Assay: Primary qHTS for delayed death inhibitors of the malarial parasite plastid, 48 hour incubation
Settings: P. falciparum luciferase growth in erythrocytes; series mostly up to 28.7 µM
Summary of the method: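 Here the parasites carry a stable luciferase gene and grow inside erythrocytes in Albumax-based RPMI medium with compound for one erythrocytic cycle. Activity is scored as loss of luminescent signal.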
On the % scale 0 is the no-effect control and ±100 the full control effect; potency means the concentration at half of the fitted maximal effect; tags describe the fitted curve by direction and shape.

SMILES	Potency	activity change, negative = inhibition
O=C(Cc1ncc(C(F)(F)F)cc1Cl)N1CCN(c2cccc(Cl)c2)CC1	inconclusive [inhibitor, single point]	
CCC(C)c1ccc(NC(=O)c2cnn3c(C(F)F)cc(C)nc23)cc1 (stereo not given)	inconclusive [inhibitor, single point]	
COC(=O)c1ccccc1NS(=O)(=O)c1ccc2c3c(cccc13)C(=O)N2	inconclusive [inhibitor, single point]	
COc1cccc(CN2CCNC(=O)C2CC(=O)N2CCOc3ccccc3C2)c1OC (stereo not given)	inconclusive [inhibitor, single point]	
CC(=O)[O][Hg][c]1ccccc1	active: 1.51 µM	
CN(C)c1ccc(N=Nc2ccccc2C(=O)OCC(=O)N2CCCC2)cc1	inconclusive [inhibitor, full curve, poor fit]	
O=C(NC1CCCCC1)C(=S)NC1CCCCC1	inactive	
CCOC(=O)CNC(=O)C1c2cc(OC)c(OC)cc2C(=O)N(C)C1c1ccccc1F (stereo not given)	inactive	
COc1ccc(C2CC(c3ccccc3)=NN2S(=O)(=O)c2ccccc2)c(OC)c1 (stereo not given)	inconclusive [inhibitor, single point]	
S=C(NCc1ccccc1Cl)Nc1ccccc1Cl	inconclusive [inhibitor, single point]	
COc1cc2c(cc1OC)C(COc1ccc(F)cc1)N(C(=O)c1ccco1)CC2 (stereo not given)	active: 11.7 µM	
CCOC(=O)c1c(C)c(C(=O)Nc2ccc3c(c2)OCO3)c(C)n1C	inconclusive [inhibitor, partial curve, poor fit]	
N#Cc1ccccc1NC(=O)c1ccc2c(Cl)c3c(nc2c1)CCCC3	inconclusive [inhibitor, single point]	
COC(=O)c1ccc(C(=O)OC)c(NC(=O)Nc2ccc3c(c2)OCO3)c1	inactive	
Nc1ccc(N2CCOCC2)c(S(=O)(=O)Nc2cc(Cl)ccc2Cl)c1	inconclusive [inhibitor, partial curve]	
Cc1ccc(S(=O)(=O)N2CCC(C(=O)NNC(=O)c3ccncc3)CC2)cc1	inactive	
O=C(CSCC(=O)Nc1ccc2ccccc2c1)NCc1ccccc1	inconclusive [inhibitor, full curve, poor fit]	
O=C(CSc1nc2ccccc2s1)NCC1CCCO1 (stereo not given)	inactive	
Cc1cccc(OCCCC(=O)NC(C)C)c1	inactive	
O=C(Cn1c(=O)oc2cc(S(=O)(=O)N3CCCC3)ccc21)Nc1cccc(C(F)(F)F)c1	inactive	
CC(=O)c1cccc(NC(=O)c2ccco2)c1	inactive	
CSc1cnn(Cc2ccccc2)c(=O)c1SCc1ccccc1	inconclusive [inhibitor, partial curve, poor fit]	
CN(C)S(=O)(=O)n1cc(/C=C(\NC(=O)c2ccccc2Cl)C(=O)NCCCn2ccnc2)c2ccccc21	inconclusive [inhibitor, single point]	
Cc1cc(Cl)ccc1OCc1nnc2n1CCCCC2	inactive	

SMILES	Potency	activity change, negative = inhibition
O=C(CC1C(=O)NCCN1C(=S)Nc1ccccc1)Nc1ccc2c(c1)OCCO2 (stereo not given)	inactive	
CCc1ccc(C2c3[nH]c4ccccc4c3CCN2C(=O)CN2CCN(CC)CC2)cc1 (stereo not given)	active: 10.4 µM	
CC(=O)c1cccc(CN2CCCC(N3CCN(c4ccccc4F)CC3)C2)c1 (stereo not given)	inconclusive [inhibitor, single point]	
CN1CCc2c(sc3nc(SCC(=O)N4CCOCC4)n(-c4ccc(Cl)cc4)c(=O)c23)C1	inconclusive [inhibitor, partial curve]	
COc1ccc(CCNC(=S)NC2CCN(Cc3ccccc3)CC2)cc1	inconclusive [inhibitor, partial curve, poor fit]	
Cc1csc(C2=C(O)CN(c3ccc4c(c3)OCCOCCOCCOCCO4)C2=N)n1	inconclusive [inhibitor, partial curve, poor fit]	
Cc1cc(C)nc(-n2nc(C)cc2NC(=O)CN2CCCC2)n1	inconclusive [inhibitor, single point]	
CCN(CC)S(=O)(=O)c1ccc(NN=C2CCN(C)CC2)c([N+](=O)[O-])c1	inactive	
COc1ccc(/C=N/n2c(C)nc3c([nH]c4ccccc43)c2=O)cc1CN1CCCC(C)(C)C1	active: 11.7 µM	
CCN1C(=O)/C(=C2/C=CC=CN2C)OC1=S	inactive	
O=C(NCC(c1cccnc1)N1CCN(c2ccccc2F)CC1)c1ccccc1 (stereo not given)	inconclusive [inhibitor, single point]	
CSc1ccccc1NC(=O)COC(=O)Cn1cc(C(F)(F)F)ccc1=O	inactive	
CCOC(=O)C1=C(CC)Nc2ccccc2N=C1NC(=O)c1ccc(S(=O)(=O)N2CCOCC2)cc1	inconclusive [inhibitor, partial curve, poor fit]	
O=C(NN1CCCCC1)c1cnn2c(C(F)F)cc(-c3ccccc3)nc12	inactive	
CCN(CC)c1ccc(NC(=O)CCNS(=O)(=O)c2ccc3c(c2)CCC(=O)N3)c(C)c1	inconclusive [inhibitor, single point]	
Cc1ccc(C(O)(c2ccccc2)c2ccccc2C(C)N(C)C)c(C)c1 (stereo not given)	inconclusive [inhibitor, partial curve]	
Cc1ccccc1N1CCN(CCCOc2ccc3c(C)cc(=O)oc3c2)CC1	inconclusive [inhibitor, single point]	
CC1CCN(C(=O)COc2coc(CN3CCc4ccccc43)cc2=O)CC1	inconclusive [inhibitor, partial curve]	
COc1ccc(N(C(=O)Cn2nnc(-c3ccc(C)o3)n2)C(C(=O)NC2CCCC2)c2ccncc2)cc1 (stereo not given)	inconclusive [inhibitor, full curve]	
COc1ccc(C2NCc3ccc4c(c3-n3cccc32)OCO4)cc1OC (stereo not given)	inconclusive [inhibitor, partial curve, poor fit]	
O=C(C1CC(=O)N(C2CCCC2)C1)N1CCN(c2cccc(C(F)(F)F)c2)CC1 (stereo not given)	inconclusive [inhibitor, single point]	
COc1cccc(/C=N/NC(=O)c2cnccn2)c1OC	inactive	
Cn1c(=O)c2c(nc(N3CCN(c4ccccc4)CC3)n2CCCc2ccccc2)n(C)c1=O	inconclusive [inhibitor, single point]	
Cc1onc(-c2c(F)cccc2Cl)c1C(=O)NC(=S)NC1CCSC1=O (stereo not given)	inactive	

SMILES	Potency	activity change, negative = inhibition
CCC1=C(OC(=O)N(CC)CC)N2C(=O)OC(=NCCc3c[nH]c4ccccc34)[C@]2(C)[C@H]2C1=CC[C@H]1C(=O)N(C)C(=O)[C@H]12	active: 10.4 µM	
CC(CN(C)C)CN1c2ccccc2Sc2ccccc21 (stereo not given)	active: 13.1 µM	
Cc1ccc(C)c(OCC(=O)Nc2cc(NC(=O)COc3cc(C)ccc3C)cc(C(=O)O)c2)c1	inactive	
O=C(/C=C/c1ccccc1)NCCO	inactive	
COc1cc(Cl)cc(C2NC(=O)NC(C)=C2C(=O)NCc2ccccc2)c1O (stereo not given)	inconclusive [inhibitor, partial curve, poor fit]	
CCc1ccccc1NC(=O)Cn1nnc(-c2cccs2)n1	inconclusive [inhibitor, single point]	
NC(N)=NC(N)=Nc1cccc2ccccc12	inconclusive [inhibitor, full curve, poor fit]	
Cc1cc2c(cc1C)N(C(=O)CSC1=NCCS1)C(C)(C)c1ssc(=S)c1-2	active: 6.57 µM	
C=CCn1c(SCC(=O)Nc2ccc(C(=O)OCC)cc2)nnc1-c1sc(N)nc1C	inconclusive [inhibitor, single point]	
C/C(=N\Nc1ccccn1)c1ccc(C(C)C)cc1	inconclusive [inhibitor, single point]	
COc1ccc(-c2cc(=O)oc3cc(OCC(=O)N4C[C@H]5C[C@@H](C4)c4cccc(=O)n4C5)ccc23)cc1	inconclusive [inhibitor, single point]	
Cc1ccc(S(=O)(=O)NCc2nc(-c3ccccc3)no2)cc1	inactive	
COc1ccccc1NS(=O)(=O)c1cccc(C(=O)N2CCCCCC2)c1	inconclusive [inhibitor, partial curve]	
Cc1cccc(-c2onc3ccc(C(=O)/C=C/N(C)C)cc23)c1	inconclusive [inhibitor, partial curve]	
Cn1c(Cc2ccccc2)nnc1SCC(=O)Nc1ccc(N2CCOCC2)cc1	inactive	
Cc1ccc(C)c(N2N=C(C(=O)OCC(=O)N(C)c3ccccc3)CCC2=O)c1	inconclusive [inhibitor, single point]	
Cc1cc2c(cc1S(=O)(=O)Nc1cccc(C)c1C)n(C)c(=O)c(=O)n2C	inactive	
CCC1(c2ccccc2)NC(=O)N(CC(=O)N(C)Cc2ccccc2)C1=O (stereo not given)	inconclusive [inhibitor, partial curve, poor fit]	
CC(NC(=O)C1CCC(CNS(=O)(=O)c2ccccc2)CC1)c1ccc2c(c1)OCCO2 (stereo not given)	inactive	
COc1cc(/C=C/C(=O)OC(C)C(=O)c2ccccc2)cc(OC)c1OC (stereo not given)	inconclusive [inhibitor, single point]	
O=C(Nc1nnc(-c2ccco2)o1)c1ccc2ccccc2c1	inactive	
CSCc1cc(N(C)c2ccccc2)nc(-c2ccccn2)n1		inactive: -5.69% [at 0.00184 µM]
